From patent US20200079850A1 (SUTRO BIOPHARMA, published 2020)

Legend:
[1] = molecular target: T1, hLAG3 (Acro Biosystems), SPR analyte (human, UniProt P18627 23-450); assay: SPR (Biacore), antibody captured by anti-Fc, hLAG3 as analyte, 25 C
T1 construct: also called human LAG3 kinetics
T1 sequence: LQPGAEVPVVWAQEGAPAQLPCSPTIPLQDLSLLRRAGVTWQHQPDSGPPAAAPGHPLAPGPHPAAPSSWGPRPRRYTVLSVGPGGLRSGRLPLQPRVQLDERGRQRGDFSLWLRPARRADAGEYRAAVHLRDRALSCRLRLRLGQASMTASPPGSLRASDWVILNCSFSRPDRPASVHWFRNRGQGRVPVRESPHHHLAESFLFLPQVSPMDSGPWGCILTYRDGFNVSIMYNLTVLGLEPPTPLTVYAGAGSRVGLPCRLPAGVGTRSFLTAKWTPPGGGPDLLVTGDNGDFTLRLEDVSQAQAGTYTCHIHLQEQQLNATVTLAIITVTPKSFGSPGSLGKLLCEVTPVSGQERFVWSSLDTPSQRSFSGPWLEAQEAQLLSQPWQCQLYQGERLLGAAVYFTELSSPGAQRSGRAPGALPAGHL
Method: Anti-Fc polyclonal antibodies were immobilized onto a CMS chip (GE Life Sciences) using amine coupling chemistry (from Amine Coupling Kit, GE Life Sciences). The immobilization steps were carried out at a flow rate of 25 μl/min in 1×HBS-EP+buffer (GE Life Sciences; 10× Stock diluted before use). The sensor surfaces were activated for 7 min with a mixture of NHS (0.05 M) and EDC (0.2 M). The Anti-Fc antibodies were injected over all 4 flow cells at a concentration of 25 ug/ml in 10 mM sodium acetate, pH 4.5, for 7 min. Ethanolamine (1 M, pH 8.5) was injected for 7 min to block any remaining activated groups. An average of 12,000 response units (RU) of capture antibody was immobilized on each flow cell.
Kinetic binding experiments were performed at 25° C. using 1×HBS-EP+buffer. Test and control antibodies were injected over the anti-Fc surface at concentrations of 5-10 μg/mL for 12 seconds at a flow rate of 10 μl/min on flow cells 2, 3 and 4, followed by a buffer wash for 30 seconds at the same flow rate. Kinetic characterization of antibody samples was carried out with a dilution series of antigen and 1 injection of 0 nM antigen. After capturing ligand (antibody) on the anti-Fc surface, the analyte (hPD1 or hLAG3, Acro Biosystems, Newark, Del.) was bound at 100, 25, 6.25 and 0 nM for 180 seconds, followed by a 450 second dissociation phase at a flow rate of 50 μl/min. Between each ligand capture and analyte binding cycle, regeneration was carried out using 2 injections of 10 mM Glycine pH 2.0 for 30 seconds at 30 μL/min, followed by a 30 second buffer wash step.
The data was fit with the Biacore T200 Evaluation software, using a 1:1 Langmuir binding model. KD (affinity, nM) was determined as a ratio of the kinetic rate constants calculated from the fits of the association and dissociation phases.

[2] = molecular target: T2, PD-1 (residues 1-199) C-terminally fused to the beta-galactosidase enzyme acceptor (EA) fragment, on U2OS … (human, UniProt Q15116 in part); assay: cell-based or functional assay
[3] = molecular target: T3, LAG3 (residues 1-477) C-terminally fused to the beta-galactosidase ProLink (PK) fragment, on U2OS cells (human); assay: cell-based or functional assay
[4] = molecular target: T2, PD-1 (residues 1-199) C-terminally …; assay: cell-based or functional assay; remark: listed apart in the source
[5] = molecular target: T3, LAG3 (residues 1-477) C-terminally …; assay: cell-based or functional assay; remark: listed apart in the source
[6] = molecular target: T4, recombinant human LAG3 protein (rhLAG3), HIS-tagged (ACRO) or biotinylated (R&D Cat #2319-C3) (human, UniProt P18627 23-450, biotinylated in part of the assays); assay: flow cytometry competition, biotinylated rhLAG3 binding to Daudi cells; competitor MHCII
T4 sequence: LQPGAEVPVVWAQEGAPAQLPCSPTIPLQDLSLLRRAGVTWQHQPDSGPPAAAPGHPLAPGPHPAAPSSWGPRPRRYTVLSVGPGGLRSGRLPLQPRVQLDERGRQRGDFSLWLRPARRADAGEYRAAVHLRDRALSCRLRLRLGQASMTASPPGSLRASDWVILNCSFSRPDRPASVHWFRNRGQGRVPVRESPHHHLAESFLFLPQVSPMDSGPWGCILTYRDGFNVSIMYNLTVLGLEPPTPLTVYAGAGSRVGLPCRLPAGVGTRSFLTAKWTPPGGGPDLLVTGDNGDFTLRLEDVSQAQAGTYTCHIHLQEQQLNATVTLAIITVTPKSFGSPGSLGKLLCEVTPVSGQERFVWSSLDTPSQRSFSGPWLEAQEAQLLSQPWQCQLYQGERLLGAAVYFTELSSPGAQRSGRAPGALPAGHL
Method: (§1) Daudi cells expressing Major Histocompatibility Class II (MHCII) molecules, the natural ligand for LAG3, were used to measure the ability of anti-PD1/LAG3 bi-specific antibody constructs to block biotinylated (ThermoFisher, Cat #21329) recombinant human LAG3 protein (rhLAG3, R&D Cat #2319-C3) binding. Cells were seeded at 100,000 cells/well in 100 μL of FACS buffer in 96-well polypropylene plates. The cells were centrifuged and resuspended with test antibodies (2× concentration) diluted in FACS buffer, immediately followed by equal volume of biotinylated rhLAG3 (added at 2× concentration; 7.5 μg/mL final). Cells were incubated on ice for 1 hour and washed twice. Biotinylated rhLAG3 binding was detected with 2 μg/mL R-Phycoerythrin-conjugated Streptavidin (eBioscience) for 30 minutes. Cells were washed twice with FACS buffer, fixed in 4% paraformaldehyde in PBS for 20 mins on ice in the dark, washed twice with FACS buffer, and analyzed using the BD LSR II Flow Cytometer. Data were analyzed using FlowJo (FlowJo, LLC; Ashland, Oreg.) to determine mean fluorescence intensities. Prism 6 software was used to create one site, specific binding with Hill slope curves (Log transform) to determine IC₅₀ values.

[7] = molecular target: T4, recombinant human LAG3 protein …; assay: flow cytometry competition: inhibition of biotinylated rhLAG3 binding to MHC class II on Daudi cells; PE-streptavidin detection
Method: as §1, with “values. […]” for “values.”

B1: PD-1/LAG3 Bi-specific Construct A: aPD1 1353-G10 scFv_zwB × aLAG3 Fab_zwA (bispecific antibody, human IgG1, kappa)
scFv: MEVQLVQSGAEVKKPGASVKVSCKASGYRFPHYGISWVRQAPGQGLEWMGWISAYNGNTNYAQKLQGRVTMTTDTSTNTAYMELRSLRSDDTAVYYCARDVDYGTGSGYWGQGTLVTVSSGGGGSGGGGSGGGGSSYELTQPPSVSVSPGQTARITCSGDALPKQYAYWYQQKPGQAPVMVIYKDTERPSGIPERFSGSSSGTKVTLTISGVQAEDEADYYCQSADNSITYRVFGGGTKVTVLAAGSDQ[no letters for human IgG1 Fc with changes]
heavy: MQVQLVESGGGVVQPGRSLRLSCAASGFTFSSYGMHWVRQAPGKGLEWVAVIWYDGSYKYYADSVKGRFTISRDNSKNTLYLQMNSLRAEDTAVYYCAREEAPENWDYALDVWGQGTTVTVSSASTKGPSVFPLAPSSKSTSGGTAALGCLVKDYFPEPVTVSWNSGALTSGVHTFPAVLQSSGLYSLSSVVTVPSSSLGTQTYICNVNHKPSNTKVDKKVEPKSCDKTHTCPPCPAPELLGGPSVFLFPPKPKDTLMISRTPEVTCVVVDVSHEDPEVKFNWYVDGVEVHNAKTKPREEQYNSTYRVVSVLTVLHQDWLNGKEYKCKVSNKALPAPIEKTISKAKGQPREPQVYVYPPSREEMTKNQVSLTCLVKGFYPSDIAVEWESNGQPENNYKTTPPVLDSDGSFALVSKLTVDKSRWQQGNVFSCSVMHEALHNHYTQKSLSLSPGK
light: [no letters for about 100 residues][no letters for about 120 residues]
notes: also called 1449-G09.2-Fab-zwA
[1]
  Kd: 0.0845 nM
  koff: 0.000102 s⁻¹
  kon: 1.21e+06 M⁻¹ s⁻¹
[2]
  PxL cell bridging EC50 (beta-galactosidase complementation, U2OS cells): 0.6 nM
[3]
  PxL cell bridging EC50 (beta-galactosidase complementation, U2OS cells): 0.6 nM
[4]
  EC50 of beta-galactosidase enzyme-fragment complementation (RLU) on U2OS cells co-expressing PD-1-EA and LAG3-PK; PD-1/LAG3 cell bridging, needs both targets: 0.14 nM
[5]
  EC50 of beta-galactosidase enzyme-fragment complementation (RLU) on U2OS cells co-expressing PD-1-EA and LAG3-PK; PD-1/LAG3 cell bridging, needs both targets: 0.14 nM
[6]
  IC50: 17 nM
[7]
  IC50: 39 nM
